From the RNAGym collection of RNA variant scans (doi:10.1093/nar/gkz1192)
The source gives no read counts; variants with many changes may rest on few reads.

B1: CPEB3 Ribozyme (parent)
chain: UAACAGGGGGCCACAGCAGAAGCGUUCACGUCGCAGCCCCUGUCAGAUUCUGGUGAAUCUGCGAAUUCUGCUGUAUAUCUC

Variants of: B1
Assay: self-cleavage, relative activity (ratio to wild type); higher = more cleavage; in vitro, sequencing
Outline: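 Barcoded CPEB3 ribozyme mutants, produced by rounds of error-prone PCR, self-cleaved while being transcribed with T7 RNA polymerase for 5 hours at 37°C and during a subsequent 15 min DNase I step before EDTA was added. Sequencing of template-switched cDNA on Illumina gave cleaved and total reads, and DNA sequencing assigned barcodes to variants. Each variant's relative activity is its cleaved/total read fraction divided by the unmutated ribozyme's fraction, averaged across three batches. A variant needed a minimum of 5 reads.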

Question: With UAACAGGGGGCCACAGCAGAAGCGUUCACGUCGCAGCCCCUGUCAGAUUCUGGUGAAUCUGCGGACUCUACUGUAUAUCUC [A64G U66C G70A] as the variant, how does the self-cleavage read?
Answer: The self-cleavage was 0.17.

Question: With UAACAGGGGGCCACAGCAGAAGCGUUCACGUCGCAGCCCCUGUCAGAUUCUGGUGAAUCUGCGAGUUCUGCUGUAUAACAC [A65G U78A U80A] as the variant, how does the self-cleavage read?
Answer: Its self-cleavage is 0.68.

Question: Which self-cleavage does the source give for UAACAGGGGGCCACAGCAGAAGCGUUCACGUCGCAGCCCCUGUCAGAUUCUGGUGAAUCUGCGAGUACUGCUGGAUAUCUC [A65G U67A U74G] here?
Answer: The self-cleavage was 0.19.

Question: Which self-cleavage does the source give for UAACAGGGGGCCACAGCAGAAGCGUUCACGUCGCAGCCCCUGUCAGAUUCUGGUGAAUCUGCGAGUUCUGUCGUUUAUCUC [A65G C71U U72C A75U] here?
Answer: Its self-cleavage is 0.4.

Question: Which self-cleavage does the source give for UAACAGGGGGCCACAGCAGAAGCGUUCACGUCGCAGCCCCUGUCAGAUUCUGGUGAAUCUGCGGAUUCUGCUGUUUAACUC [A64G A75U U78A] here?
Answer: The self-cleavage was 1.07.

Question: With UAACAGGGGGCCACAGCAGAAGCGUUCACGUCGCAGCCCCUGUCAGAUUCUGGUGAAUCUGCGAGUACCGCUGUAUAUCUC [A65G U67A U69C] as the variant, how does the self-cleavage read?
Answer: The self-cleavage was 0.32.

Question: With UAACAGGGGGCCACAGCAGAAGCGUUCACGUCGCAGCCCCUGUCAGAUUCUGGUGAAUCUGCGAAACCUGCUGAAUAUCUC [U66A U67C U74A] as the variant, how does the self-cleavage read?
Answer: The self-cleavage was 0.28.

Question: With UAACAGGGGGCCACAGCAGAAGCGUUCACGUCGCAGCCCCUGUCAGAUUCUGGUGAAUCUGCGAAACCCGCUGUAUAUCUU [U66A U67C U69C C81U] as the variant, how does the self-cleavage read?
Answer: The self-cleavage was 0.2.

Question: For UAACAGGGGGCCACAGCAGAAGCGUUCACGUCGCAGCCCCUGUCAGAUUCUGGUGAAUCUGCGUAAUCUGCAGUACAUCUC [A64U U66A U72A U76C], which self-cleavage is on record?
Answer: Its self-cleavage is 0.09.

Question: Which self-cleavage does the source give for UAACAGGGGGCCACAGCAGAAGCGUUCACGUCGCAGCCCCUGUCAGAUUCUGGUGAAUCUGCGGAUCCUGCUGUAUACCUC [A64G U67C U78C] here?
Answer: Its self-cleavage is 0.38.

Question: With UAACAGGGGGCCACAGCAGAAGCGUUCACGUCGCAGCCCCUGUCAGAUUCUGGUGAAUCUGCGAGUUCUGCUGUGUAUUCC [A65G A75G C79U U80C] as the variant, how does the self-cleavage read?
Answer: The self-cleavage was 0.41.

Question: Which self-cleavage does the source give for UAACAGGGGGCCACAGCAGAAGCGUUCACGUCGCAGCCCCUGUCAGAUUCUGGUGAAUCUGCGUAUUCCGCUGUAUGUCUC [A64U U69C A77G] here?
Answer: Its self-cleavage is 0.42.

Question: Which self-cleavage does the source give for UAACAGGGGGCCACAGCAGAAGCGUUCACGUCGCAGCCCCUGUCAGAUUCUGGUGAAUCUGCGAGUGCUGCUGUAUACCUC [A65G U67G U78C] here?
Answer: Its self-cleavage is 0.4.

Question: For UAACAGGGGGCCACAGCAGAAGCGUUCACGUCGCAGCCCCUGUCAGAUUCUGGUGAAUCUGCGGACUCUGCUGUAUAGCUC [A64G U66C U78G], which self-cleavage is on record?
Answer: The self-cleavage was 0.26.

Question: With UAACAGGGGGCCACAGCAGAAGCGUUCACGUCGCAGCCCCUGUCAGAUUCUGGUGAAUCUGCGAGUCCUGCUGUCUAUCUC [A65G U67C A75C] as the variant, how does the self-cleavage read?
Answer: Its self-cleavage is 0.29.

Question: Which self-cleavage does the source give for UAACAGGGGGCCACAGCAGAAGCGUUCACGUCGCAGCCCCUGUCAGAUUCUGGUGAAUCUGCGUACUCUGCCGUAUAUCUC [A64U U66C U72C] here?
Answer: The self-cleavage was 0.29.

Question: With UAACAGGGGGCCACAGCAGAAGCGUUCACGUCGCAGCCCCUGUCAGAUUCUGGUGAAUCUGCGUACUCUGCGGUAUAUCUC [A64U U66C U72G] as the variant, how does the self-cleavage read?
Answer: The self-cleavage was 0.14.

Question: Which self-cleavage does the source give for UAACAGGGGGCCACAGCAGAAGCGUUCACGUCGCAGCCCCUGUCAGAUUCUGGUGAAUCUGCGAGUUCUGCUGUACAUCAC [A65G U76C U80A] here?
Answer: The self-cleavage was 0.47.

Question: For UAACAGGGGGCCACAGCAGAAGCGUUCACGUCGCAGCCCCUGUCAGAUUCUGGUGAAUCUGCGGAUCCUGCUGUACAUCUC [A64G U67C U76C], which self-cleavage is on record?
Answer: Its self-cleavage is 0.23.

Question: With UAACAGGGGGCCACAGCAGAAGCGUUCACGUCGCAGCCCCUGUCAGAUUCUGGUGAAUCUGCGGAUCCAGCUGUAUAUCUC [A64G U67C U69A] as the variant, how does the self-cleavage read?
Answer: The self-cleavage was 0.18.

Question: Which self-cleavage does the source give for UAACAGGGGGCCACAGCAGAAGCGUUCACGUCGCAGCCCCUGUCAGAUUCUGGUGAAUCUGCGUAUUCUGCUGCAUAUUCC [A64U U74C C79U U80C] here?
Answer: The self-cleavage was 0.59.

Question: For UAACAGGGGGCCACAGCAGAAGCGUUCACGUCGCAGCCCCUGUCAGAUUCUGGUGAAUCUGCGUGUUCCGCUGUAUAUCUC [A64U A65G U69C], which self-cleavage is on record?
Answer: Its self-cleavage is 0.19.

Question: For UAACAGGGGGCCACAGCAGAAGCGUUCACGUCGCAGCCCCUGUCAGAUUCUGGUGAAUCUGCGGAUACUGCUGUAUAUCCC [A64G U67A U80C], which self-cleavage is on record?
Answer: The self-cleavage was 0.72.

Question: With UAACAGGGGGCCACAGCAGAAGCGUUCACGUCGCAGCCCCUGUCAGAUUCUGGUGAAUCUGCGGAUCCUGCUGUAUAUCCC [A64G U67C U80C] as the variant, how does the self-cleavage read?
Answer: Its self-cleavage is 0.34.

Question: Which self-cleavage does the source give for UAACAGGGGGCCACAGCAGAAGCGUUCACGUCGCAGCCCCUGUCAGAUUCUGGUGAAUCUGCGAUUUCUGCAGUAUAUCCC [A65U U72A U80C] here?
Answer: The self-cleavage was 0.37.

Question: With UAACAGGGGGCCACAGCAGAAGCGUUCACGUCGCAGCCCCUGUCAGAUUCUGGUGAAUCUGCGGAUUCUGCCGUAUACCUC [A64G U72C U78C] as the variant, how does the self-cleavage read?
Answer: The self-cleavage was 0.93.

Question: For UAACAGGGGGCCACAGCAGAAGCGUUCACGUCGCAGCCCCUGUCAGAUUCUGGUGAAUCUGCGGAUUCUGCAGUAUCUCUC [A64G U72A A77C], which self-cleavage is on record?
Answer: Its self-cleavage is 0.44.

Question: For UAACAGGGGGCCACAGCAGAAGCGUUCACGUCGCAGCCCCUGUCAGAUUCUGGUGAAUCUGCGGACUCUGCUGUAUAUCCC [A64G U66C U80C], which self-cleavage is on record?
Answer: Its self-cleavage is 0.24.

Question: With UAACAGGGGGCCACAGCAGAAGCGUUCACGUCGCAGCCCCUGUCAGAUUCUGGUGAAUCUGCGUGUUCUGCUGUAUAUCAC [A64U A65G U80A] as the variant, how does the self-cleavage read?
Answer: Its self-cleavage is 0.31.

Question: For UAACAGGGGGCCACAGCAGAAGCGUUCACGUCGCAGCCCCUGUCAGAUUCUGGUGAAUCUGCGAGUUCUGCAGUAUAUCCC [A65G U72A U80C], which self-cleavage is on record?
Answer: Its self-cleavage is 0.81.

Question: Which self-cleavage does the source give for UAACAGGGGGCCACAGCAGAAGCGUUCACGUCGCAGCCCCUGUCAGAUUCUGGUGAAUCUGCGAGUCCUGCUGUACAUCUC [A65G U67C U76C] here?
Answer: Its self-cleavage is 0.27.

Question: With UAACAGGGGGCCACAGCAGAAGCGUUCACGUCGCAGCCCCUGUCAGAUUCUGGUGAAUCUGCGACUUCUGCUGUGUAUCAC [A65C A75G U80A] as the variant, how does the self-cleavage read?
Answer: The self-cleavage was 0.38.

Question: For UAACAGGGGGCCACAGCAGAAGCGUUCACGUCGCAGCCCCUGUCAGAUUCUGGUGAAUCUGCGUAUUCUGCUGAAUAUCAC [A64U U74A U80A], which self-cleavage is on record?
Answer: Its self-cleavage is 0.75.

Question: With UAACAGGGGGCCACAGCAGAAGCGUUCACGUCGCAGCCCCUGUCAGAUUCUGGUGAAUCUGCGAGUUCCGCUGUAUACCUC [A65G U69C U78C] as the variant, how does the self-cleavage read?
Answer: Its self-cleavage is 0.37.
